Over roughly 33,000 sequences, “E-score (-0.5 to 0.5)” has its median near -0.013; the highest 2% begin near 0.3. Some of the results follow.
The sequences below were run against T1, Msn1 (UniProt P22148) (assay: PBM E-score (8-mer binding enrichment) (E-score (-0.5 to 0.5)); higher = stronger / more preferred TF binding; most listed sequences are background and not binding sites). Conditions: protein concentration: 200 nM; construct: GST-full length.
T1 sequence: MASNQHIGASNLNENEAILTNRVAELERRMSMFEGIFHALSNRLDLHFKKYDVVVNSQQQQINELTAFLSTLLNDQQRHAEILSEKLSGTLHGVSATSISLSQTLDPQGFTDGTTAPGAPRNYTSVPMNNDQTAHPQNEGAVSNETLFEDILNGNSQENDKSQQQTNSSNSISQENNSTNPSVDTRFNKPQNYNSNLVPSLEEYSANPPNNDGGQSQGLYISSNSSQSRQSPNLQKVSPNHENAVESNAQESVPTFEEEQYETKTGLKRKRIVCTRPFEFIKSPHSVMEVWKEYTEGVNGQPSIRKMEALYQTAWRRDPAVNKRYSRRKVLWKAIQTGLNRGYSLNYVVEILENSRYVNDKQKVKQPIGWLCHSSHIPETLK
Procedure, shortened: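 Each ungapped eight-base word and its reverse complement, pooled, received an E-score from the Universal PBM Analysis Suite. Underlying scans, normalised with masliner, recorded fluorescent anti-GST bound to GST-tagged yeast transcription factors. These were applied at about 100-200 nM to universal all-10-mer Agilent arrays double-stranded by primer extension.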

| Sequence | PBM E-score |
| --- | --- |
| GATAATGC | -0.0121 |
| GAATAAGC | -0.016 |
| ACAAAGAA | 0.302 |
| CTGAGGCC | -0.161 |
| TGCTAGAA | 0.105 |
| GTCTCCTA | -0.257 |
| TCTGTAAA | 0.0523 |
| ACCAAGGT | -0.237 |
| ACCATCCT | -0.172 |
| CGCTGGGA | -0.0828 |
| AAATATCG | 0.0709 |
| AGTGTTGG | -0.116 |
| TAGGAAGA | -0.123 |
| GAGGCGCC | -0.178 |
| CGTTGTTA | 0.202 |
| CGAGTACG | 0.00765 |
| CAACTACG | 0.032 |
| CACCCCAC | 0.0161 |
| CGCACGCA | -0.0526 |
| AGCTCGGA | -0.00872 |
| CAGGGACA | 0.47 |
| GTATTTCA | 0.0957 |
| TATGCGGA | 0.11 |
| ACGGATTC | 0.0302 |
| AGACGGGC | -0.0852 |

| Sequence | PBM E-score |
| --- | --- |
| AAGTCTCT | -0.0124 |
| CAATGTGA | 0.0388 |
| GAGCTCAC | -0.155 |
| ATCTACAG | 0.133 |
| GCTGGCCA | -0.0605 |
| ACAGACAA | 0.44 |
| CCTACTTA | -0.00398 |
| TGCTAAAA | 0.203 |
| CAATTCTG | 0.0159 |
| CGCGACCC | -0.13 |
| TCGACAGA | -0.101 |
| AATGGTCA | 0.175 |
| GCTGAATA | 0.0327 |
| CACTATCC | -0.0232 |
| CCGATGGC | -0.102 |
| AAAAAAGC | -0.0879 |
| GATCGGCA | -0.0457 |
| GATTGCTA | -0.0824 |
| AGCCCTTG | -0.29 |
| TAGATCGA | 0.0565 |
| GGGAGAAC | -0.172 |
| ATTGTTTG | 0.202 |
| TCAGTTCA | -0.039 |
| ACTTGCAA | 0.0319 |
| AAGGTAAC | 0.0327 |

| Sequence | PBM E-score |
| --- | --- |
| ATGGGCAA | 0.0683 |
| TGGGCACA | -0.081 |
| GTGTGAAC | -0.0929 |
| AACCCTGT | -0.0817 |
| AGGATACT | -0.139 |
| ACGCATTA | 0.0828 |
| ACCAGCAT | -0.0593 |
| AGAATAGA | 0.139 |
| ATTTAGGG | 0.112 |
| CCGTCACC | -0.147 |
| ACATCAGG | 0.153 |
| AACGTTCT | 0.0698 |
| ATGCCATA | 0.0177 |
| AGAGGGCT | -0.403 |
| ACGGAAGT | 0.0855 |
| CGGATGTC | 0.348 |
| ATGATCAC | 0.0677 |
| CACCGTGA | -0.0052 |
| ACGCCGCT | -0.0441 |
| AAACCTAC | -0.00141 |
| ACCCGCAG | -0.0799 |
| AACATATT | 0.132 |
| GGTCATTA | -0.0868 |
| AGAACCAT | 0.138 |
| GATCTGCA | -0.149 |

| Sequence | PBM E-score |
| --- | --- |
| TAATTTAA | 0.0937 |
| CATAGTCC | -0.0295 |
| TCTTCTAA | 0.113 |
| ACGCAAGC | -0.0684 |
| CTTCTCTA | -0.185 |
| AATACCTC | 0.123 |
| AGCAGTTA | -0.0695 |
| AAGCCGCC | -0.36 |
| AGAGTACC | -0.0733 |
| ACTAAGGG | -0.152 |
| CTCAAGAA | -0.0174 |
| CCACTGCC | -0.114 |
| GGATGAAA | 0.00502 |
| CTTCTAGC | -0.157 |
| CATGGAAC | -0.0536 |
| CGGCGTAC | -0.0566 |
| AACGCAAA | 0.0497 |
| ATAACGCG | 0.0678 |
| GCATTAAA | 0.107 |
| CCGAAGGC | -0.182 |
| AGATGGCC | -0.182 |
| GATAGCGC | -0.273 |
| ACTACTCG | -0.00983 |
| AACACCAT | 0.0604 |
| ACAAAAAT | 0.372 |

| Sequence | PBM E-score |
| --- | --- |
| AGAAGTGA | -0.124 |
| ATCTTAGC | 0.149 |
| CGCTTGTA | 0.211 |
| GAGTCACC | -0.121 |
| ACCTAGGA | 0.218 |
| GCCGGCAA | 0.0765 |
| CTATTGTA | 0.195 |
| AAAGGGAG | -0.164 |
| ATATCTTA | 0.207 |
| ACACTGGG | -0.14 |
| AACTTACT | -0.118 |
| GGAATGCC | -0.29 |
| ACGCCAGG | -0.198 |
| CAGCTAAC | -0.175 |
| CCGATGTC | 0.253 |
| TCATCTCA | 0.137 |
| AGCACCAG | -0.113 |
| TAACGAGA | -0.0296 |
| GCACCACA | -0.138 |
| CCGCCTCC | -0.331 |
| AAGTTCTA | -0.0143 |
| CGACCTTA | -0.0274 |
| AATAGGTA | 0.0149 |
| TTATTGAA | 0.0568 |
| CGGTGGCA | -0.187 |

| Sequence | PBM E-score |
| --- | --- |
| AAAACCAT | 0.0401 |
| AGATGTGC | 0.0731 |
| AGCTGTAC | -0.0374 |
| ATTCATGG | 0.00285 |
| GCCGCTAA | -0.0269 |
| CGCCAAGA | -0.142 |
| ATACATGA | 0.073 |
| ACCTGCAA | -0.237 |
| CAATTCTA | -0.0321 |
| CCCATGGA | -0.0444 |
| CATTGAAA | 0.112 |
| CAGAGTTA | -0.13 |
| ACGATTGA | 0.101 |
| CCACCCGA | 0.0126 |
| CGACCGTA | -0.0583 |
| ACTGCAGG | -0.14 |
| GGGTTCCA | -0.254 |
| GTGCTATA | 0.0542 |
| CTTCAAGC | -0.231 |
| GAGCCCTC | -0.318 |
| AGGCATAT | -0.0112 |
| GGTATACA | 0.135 |
| CCGGCCCG | -0.183 |
| ATAGGAAC | 0.00013 |
| ATACCTTG | 0.0234 |

| Sequence | PBM E-score |
| --- | --- |
| AAACAGAG | -0.0424 |
| CGTACCCA | -0.0723 |
| AGAATCTC | -0.0882 |
| TACGTTAA | 0.0269 |
| ATTACGGC | 0.0654 |
| GTTGGAAA | 0.165 |
| GCTCATTA | -0.119 |
| CATTTGCG | 0.13 |
| AATACTCT | 0.0619 |
| ATCCCTCA | -0.27 |
| CTAGCCAA | 0.00535 |
| AGTGCGAA | -0.16 |
| ACGTCCAG | 0.0531 |
| AGAAGACT | -0.225 |
| ATAATTTA | 0.178 |
| ACCGGCCT | -0.163 |
| CGCCGGAA | 0.0375 |
| AACCTTGA | -0.00797 |
| GACACCAA | 0.132 |
| CTGTCCCC | 0.00412 |
| ATAATCTA | 0.019 |
| GGCGTCCC | -0.22 |
| CGCCCTAA | -0.171 |
| CAGCCAGC | -0.217 |
| ATAAGACC | -0.0547 |

| Sequence | PBM E-score |
| --- | --- |
| GTCTTAAA | 0.101 |
| ACCGCGCC | -0.168 |
| CACGAAAG | 0.19 |
| AGTGAACC | 0.0211 |
| CATACGTC | 0.11 |
| CTTTAATC | 0.0429 |
| CAAGGGAA | -0.0407 |
| GACTGTCA | -0.0616 |
| TATAGCAA | 0.055 |
| CAGAAGTC | 0.0297 |
| AAATCTAT | 0.147 |
| GCCCATAC | -0.0243 |
| TGGCGGAA | -0.131 |
| TCCCCCAA | -0.251 |
| CTGTGATC | -0.0616 |
| ACCGGAAA | 0.16 |
| GGATTTAA | 0.112 |
| CAGAGCAA | -0.0958 |
| CCGGAACC | -0.105 |
| CTGGTGCA | -0.254 |
| CATGACTC | -0.155 |
| ATCCCCGC | -0.138 |
| AAGCCAGG | -0.181 |
| GATTATAC | 0.0634 |
| ATAGGTGA | 3e-05 |

| Sequence | PBM E-score |
| --- | --- |
| CTACTCGC | -0.174 |
| CCGACCAG | 0.0232 |
| TGCTGCAA | 0.174 |
| CAGATTAA | 0.161 |
| AACCGTAA | 0.0256 |
| GTCTGAAA | 0.241 |
| AGACCCAG | -0.174 |
| GTCTACAA | -0.00574 |
| ACCCGCCA | -0.0344 |
| AGCTGCCG | -0.118 |
| ACCCCAGA | -0.157 |
| GAATAATC | 0.0305 |
| CTCGGACC | 0.165 |
| AAGGACGG | -0.145 |
| ACAAGCAA | 0.193 |
| CGATGTAC | 0.169 |
| CCGTTCCG | 0.0111 |
| CTAAGCGC | -0.0446 |
| CAGCCTGC | -0.0942 |

Reference: the supplement of paper PMC3334620
